Test results taken from the RNAGym collection of RNA variant scans (doi:10.1101/gad.245936.114).
Variants at the floor of the assay are shown more often than the library holds them.

B1: tRNA (parent)
chain: CUCUCGGUAGCCAAGUUGGUUUAAGGCGCAAGACUUUAAUUUAUCACUACGAAAUCUUGAGAUCGGGCGUUCGACUCGCCCCCGGGAGAUUUUUUCCUCGAGCAA

Variants of: B1
Assay: nonsense suppression (GFP-seq) (ratio to wild type); higher = more function; SUP4oc tRNA, yeast GFP reporter sort-seq
Procedure, shortened: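 Yeast were grown in raffinose/galactose medium with 80 mg/L adenine, each strain bearing a genome-integrated ochre-suppressor tRNA variant from a ~3% random-mutation library, a galactose-driven GFP ochre reporter, and RFP. After sorting into GFP/RFP bins, every bin was sequenced on an Illumina platform at phred ≥30. The GFPSEQ value, a measure of nonsense suppression, is the weighted bin median GFP/RFP relative to the unmutated parent tRNA, using each variant's estimated cell share per bin as the weight. Only variants with ≥100 reads and ≥30 cells were included.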

Nonsense suppression, ≤ 0.026:
CUCUCGCUAGACAAGUUGGUUUAAGGCGCAAGACUUUAAUUUAUCACUACGAAAUCUUGAGAUCGGGCGUUCGACUCGCCCCCGGGAGAUUUUUUCCUCGAGCAA
CUCUCGCUAGCCAAGUUGGUUUAAGGCGCAAGACUUUAAUUUAUCACUACGAAAUCUUGAGAUCGGGCGUUCGACUCGCUCCCGGGAGAUUUUUUCCUCGAGCAA
CUCUCGCUAGCCAAGUUGGUUUAAGGCGCAAGACUUUAAUUUAUCACUACGAAAUCUUGAGAUCGGGCGUUCGACUCACCCCCGGGAGAUUUUUUCCUCGAGCAA
CUCUCGCUAGCCAAGUUGGUUUAAGGAGCAAGACUUUAAUUUAUCACUACGAAAUCAUGAGAUCGGGCGUUCGACUGGCCCCCGGGAGAUUUUUUCCUCGAGCAA
CUCUCGCUAGCCAAGUUGGUUUAAGGCGCAAGACUUUAAUUUAUCACUACGAAAUCUUGAGAUCGAGCGUUCGACUCGCCCCCGGGAGAUUUUUUCCUCGAGCAA
CUCUCGCUAGCCAAUUUGGUUUAAGGCGCAAGACUUUAAUUUAUCACUACGAAAUCUUGAGAUCGGGCGUUCGACUCGCCCCCAGGAGAUUUUUUCCUCGAGCAA
CUCUCGCUAGCCAAGUUGGUUUAACGCGCAAGACUUUAAUUUAUCACUACGAAAUCUUGAGAUCGGGCGUUCGACUCGCCCCCGGGAGAUUUUUUCCUCGAGCAA
CUCUCGCUAGCCAAGUUGGUUUAAGGCGCAAGACUUUAAUUUAUCACUACGAAAUCUUAAGAGCGGGCGUUCAACUCGCCCCCGGGAGAUUUUUUCCUCGAGCAA
CUCUCGCUAGCCAAGUUGGUUUAAGACGCGAGACUUUAAUUUAUCACUACGAAAUCUUGAGAUCGGGCGUUCGACUCGCCCCCGGGAGAUUUUUUCCUCGAGCAA
CUCUCGCUAGCCAAGUUGGUAUAGGGCGCAAGACUUUAAUUUAUCACUACGAAAUGUUGAGAUCGGGCGUCCGACUCGGCCCCGGGAGAUUUUUUCCUCGAGCAA
CUCUCGCAAGCCAAGUUGGUUCAAUGCGCAAGACUUUAAUUUAUCACUACGAAAUCUUGAGAUCGGGCGUUCGACUCGCCCCCGGGAGAUUUUUUCCUCGAGCAA
CUCUCGCUAGCCAAGUUGGUCUAAGGCGUAAGACUUUAAUUUAUCACUACGAAAUCAUGAGAUCGGGCGUUCGACUCGCCCCCGGGAGAUUUUUUCCUCGAGCAA
CUCUCGCUAGCCAAGUUGGUUUAAGGUGCAAGACUUUAAUUUAUCACUACGAAACCUUGAGAUCGGGCGUUCGACUCGCCCCCGGGGGAUUUUUUCCUCGAGCAA
CUCUCGCUACCCAAGUUGGUUUAACGCGCAAGACUUUAAUUUAUCACUACGAAAUCUUGAGCUCGGGCGUUCGACGCGCCCCCGGGAGAUUUUUUCCUCGAGCAA
CUCUCGCUAGCCAAGUUGGAUUAAGGCGCAAGACUUUAAUUUAUCACUACGAACUCUUGAGAUCGGGCCUUCGACUCGCCCCCGGGAGAUUUUUUCCUCGAGCAA
CUCUCGCUAGCCAAGUUUGUUUAAGGCGCAAGACUUUAAUUUAUCACUACGAAAUCUUGAGAUCGGGCCUUCGACUCGCCCCGGGGAGAUUUUUUCCUCGAGCAA
CUCUCGCCAGCCAAGUUGGCUUAAGGCGCAAGACUUUAAUUUAUCACUACGAAAUCUUGAGAUCGGGCGUUCGACUCGCCCCCGGGAGAUUUUUUCCUCGAGCAA
CUCUCGCUAGCCAAGUUCGUUUAAGGCGCAAGACUUUAAUUUAUCACUACGAAAUCUUGAGAUCAGGCGUUCGACUCGCCCCCGGGAGAUUUUUUCCUCGAGCAA
CUCUCGCUAGCCAAGUUGGUUUAAGGCGCAAGACUUUAAUUUAUCACUACGAAAUGUUGAGAUCGGGCGUUCGACUCGCCCCCGGGAGAUUUUUUCCUCGAGCAA
CUCUCGCUAUCCAAGUUGGUUUAAGGCCCAAGACUUUAAUUUAUCACUACGAAAUUUUGAGCUCGGGCGUUCGACUCGCCCCCGGGAGAUUUUUUCCUCGAGCAA
CUCUCGCUAGCCAAGUUGGUUUAAGGCGCAAGACUUUAAUUUAUCACUACGAAAUCUUGAGAUCGGGCGUUCGACUCGCCCCGGGGAGAUUUUUUCCUCGAGCAA
CUCUCGCUAGCCAAGUUGGUUUAAGGUGCAAGACUUUAAUUUAUCACUACGAAAUCUUGAGAUCGGGCGUUCGACUCGCCCCCGGGAGAUUUUUUCCUCGAGCAA
CUCUCGCUAGCCAAGUUGGUUUAAGGCGCAACACUUUAAUUUAUCACUACGAAAUCGUGAGAUCGGGCGUUCGACUCGCCCCCGGGAGAUUUUUUCCUCGAGCAA
CUCUCGCUAGCCAAGUUGGUUUAAGCAGCAAGACUUUAAUUUAUCACUACGAAAUCUUGAGAUCGGGCGUUCGACUCGCCCCCGGGAGAUUUUUUCCUCGAGCAA
CUCUCGCUAGCCAAGUCGGUUUAAGGCGCAAGACUUUAAUUUAUCACUACGAAAUCUUGAGAUCGGGCGUUCGGCUCGCCCCCGGGAGAUUUUUUCCUCGAGCAA
CUCUCGCAAGCCAAGUUGGUUUAAGGCGCAAGACUUUAAUUUAUCACUACGAAAUCUUGAGAUCGGGCGUUCGACUCGCCCCCGGGAGAUUUUUUCCUCGAGCAA
CUCUCGCUAGCCAAGUUGGUUUAAGGCGUAAGACUUUAAUUUAUCACUACGAAAUCUUGAGAUCGGGCGUUCAACUCGCCCCCGGGAGAUUUUUUCCUCGAGCAA
